# Test results as given in publication PMC12136788.
# Some of the results follow.
# T1: UNK ZnF1-6 (called full-length) (human, UniProt Q9C0B0 30-357)
# T1 sequence: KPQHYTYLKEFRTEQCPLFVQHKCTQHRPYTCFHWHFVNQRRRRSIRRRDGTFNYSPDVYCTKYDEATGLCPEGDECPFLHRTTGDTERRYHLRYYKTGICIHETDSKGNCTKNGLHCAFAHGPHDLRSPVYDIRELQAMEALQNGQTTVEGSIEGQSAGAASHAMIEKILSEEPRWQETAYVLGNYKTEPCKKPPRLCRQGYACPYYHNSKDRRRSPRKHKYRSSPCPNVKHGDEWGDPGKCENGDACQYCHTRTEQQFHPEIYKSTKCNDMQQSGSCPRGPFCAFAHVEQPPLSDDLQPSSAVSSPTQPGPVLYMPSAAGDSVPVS
# B1: chr8:27733518:27733645:-|3pUTR|ENSG00000147419|unk|FALSE|unique (ssRNA)
# RNA: GGGAGUUCUACAGUCCGACGAUCGACCUUUUGAUUUUGAAGCAGACUAAAAUCUGACCAGACCACAAUGAAAAGUAUAAAAUUAGAAACUUAAAUUCCAAGCUAAAUUUCAGCUUUGACCCACCUAACUCCAGUGAAUAGGUGCAACAGAGGAUUGAGCAUCA
# B2: chr22:46316300:46316401:+|CDS|ENSG00000075218|unk|total|mutant (ssRNA)
# RNA: GGGAGUUCUACAGUCCGACGAUCGGCGGCCAGUGGCUGAACUCCAGUUGCGCUUGGUCAGAAUCUUCUCAAUUGAAUAAGACCCGAAGUAUCAGACGGCGAGAUUCCUGUCUAAAUUCCAAGACAAAGGUUAUGCCUACUCCUCAACAGAGGAUUGAGCAUCA
# B3: chr4:138171397:138171528:-|3pUTR|ENSG00000151012|msi1|FALSE|unique (ssRNA)
# RNA: GGGAGUUCUACAGUCCGACGAUCAUUAUGGCAAAGAGGAGAGAAAGAAAUUUAUUUUACAUUGACAUUGCAUUGCUUCCCCUUAGAUACCAAUUUAGAUAACAAACACUCAUGCUUUAAUGGAUUAUACCCAGAGCACUUUGACAACAGAGGAUUGAGCAUCA
# B4: chr3:152462637:152462738:+|3pUTR|ENSG00000152601|msi1|total|mutant (ssRNA)
# RNA: GGGAGUUCUACAGUCCGACGAUCGAACAACAUUGUCUUUCUUUUCCCGCACAGAGUUAUGCAUUCAAAGAUGCAUACCCCGUCCGUUUCCUAUAUAUUCAUGCCAUCUUGAAAAGACAGACUAUGGUGUAACCAUGAUUCUAUCAACAGAGGAUUGAGCAUCA
# B5: chr1:93361585:93361687:+|3pUTR|ENSG00000117505|unk|FALSE|unique (ssRNA)
# RNA: GGGAGUUCUACAGUCCGACGAUCUUUAACUUGUAGUUAUAGUUUACUUAUUGUUUUUAGAAUUACUUUUACAUUUUCCCAACUAGAUGGCCUAGAGUCCAACAUUACCUUUUGAGAUGACAUUAUUGUCUCCAUAAUUGAGUGCAACAGAGGAUUGAGCAUCA
# B6: chr19:1925605:1925706:+|3pUTR|ENSG00000227500|msi1|FALSE|unique (ssRNA)
# RNA: GGGAGUUCUACAGUCCGACGAUCUUUGGACACCCCAGGCUGCCACCCCUCCCCACCCGUUCACCCCCAGGAUGCUGUUGCUGUAGGACGCCUGCUGCCCUGGAGCCCUCCCCAGGAUGUGAGCCAGUCCCCUCGCUGGUACGGCAACAGAGGAUUGAGCAUCA
# B7: chr4:137519872:137519973:-|3pUTR|ENSG00000189184|unk|FALSE|unique (ssRNA)
# RNA: GGGAGUUCUACAGUCCGACGAUCAACUAUUCAUUUUUAGCUUUUGUCUCCAGUGCAUGAUCUCAUAUUUUUGCUUUUAUUUUUAGUAUAAGAACAUUUAUAAAAUCAUAUUUUUGUUACUGCAAUUGUUUUAUUUGUUGUGUGCAACAGAGGAUUGAGCAUCA
# B8: chr2:9585027:9585123:-|3pUTR|ENSG00000134308|msi1_unk|total|mutant (ssRNA)
# RNA: GGGAGUUCUACAGUCCGACGAUCGGAAAACUUCAUUCCUUGAUUUGUGUUUGUCUUGGCCUUCCUGGUGUGCAGUACUGCUGCCGAAAAGUAUUAACCGCUUCAUUUCAUAUAAACAUAAGUAACUCCCAAACACUUAUGCCGCAACAGAGGAUUGAGCAUCA
# B9: chrX:131089436:131089558:+|3pUTR|ENSG00000147256|unk|FALSE|unique (ssRNA)
# RNA: GGGAGUUCUACAGUCCGACGAUCGGGAAACCUCAAGUGUAGGUCUAAUUAGUGUUUCUGGGAUCCAAAGUUAGAGGAAAAUUUAGAUUUUAUUGCCUGGAUCUGCUUUAAAGACAAUUGGUGUUUACACCCUCUUGUCAGCAACAACAGAGGAUUGAGCAUCA
# B10: chr4:140550230:140550341:+|CDS|ENSG00000179387|unk|total|mutant (ssRNA)
# RNA: GGGAGUUCUACAGUCCGACGAUCGAAUUUGACAAGUUUUGGUUUGAAGAAGAACCAGAAAGCAUUAUGUAUUUCAAUUUGUACCGAGAGAAGUUUCAUGAAAAGAUUAAAGGACUUUUACUGGAUUGUAAUGCCGCACUUACUCAACAGAGGAUUGAGCAUCA
# B11: chr6:136278143:136278257:-|CDS|ENSG00000029363|unk|FALSE|unique (ssRNA)
# RNA: GGGAGUUCUACAGUCCGACGAUCACAUCCGGUGAUAUUUGGCCUGGCCUUUCAGCUUAUGAUAAUAGUCCUAGAUCACCCCAUAGUCCUUCACCUAUUGCUACACCACCUAGUCAGAGUUCAUCUUGCUCUGAUGCUCCCAUGCAACAGAGGAUUGAGCAUCA
# B12: chr12:24812190:24812291:-|3pUTR|ENSG00000060982|msi1|total|mutant (ssRNA)
# RNA: GGGAGUUCUACAGUCCGACGAUCUUUACUAUCUCCUAUCCUGACCGGUGGAAGGUUUACUGAAUUGGAAAUUGGUUGACUAUCCGUUUUUAACUAAAAUGUGCAAUAACACAUUGCAGUUUCCUCAAACCCGUUUCCUAUGAUCAACAGAGGAUUGAGCAUCA
# B13: chr1:40073325:40073426:-|3pUTR|ENSG00000131238|msi1|total|mutant (ssRNA)
# RNA: GGGAGUUCUACAGUCCGACGAUCGAGGGAAGCCGCACCCAAAUUAAGUUGCUUAAGAGAGGAAAUGUACAUCUUGUAUAACUCCGGGAGCGAAGAAAAUGCCGGCGCGAAAGUGAAAAGUGAGGCAGCCCGUUCUUCCUAUUCCAACAGAGGAUUGAGCAUCA
# B14: ENSG00000124766:be:win_1551|3pUTR|ENSG00000124766|bound_else_gene|NA|bound_elsewhere_windowed (ssRNA)
# RNA: GGGAGUUCUACAGUCCGACGAUCCAGGGCUGGCUUCGCCCGCGUUCUCGUCGUCGGAUCAAGGAGCGCGGCGGCGUUUUGGACCCGCGCUCCCAUCCCCCACCUUCCCGGGCCGGGGACCCACUCUGCCCAGCCGGAGGGACGCAACAGAGGAUUGAGCAUCA
# Biological target: T1, UNK ZnF1-6 (called full-length)
# Assay: nsRBNS (natural sequence RNA bind-n-seq); RBNS binding buffer (assumed for nsRBNS): 25 mM Tris pH 7.5, 150 mM KCl, 3 mM MgCl2, 0.01% Triton X-100, 500 ug/ml BSA, 20 U/ml SUPERase-In, 4 C; UNK is unkempt and MSI1 is Musashi-1; names of the RNAs are library labels; protein concentration not given here; high values mean tight binding
row,Binder,binding signal
1,B1,1.97 enrichment R
2,B2,0.618 enrichment R
3,B3,73.9 enrichment R
4,B4,0.302 enrichment R
5,B5,152 enrichment R
6,B6,1.65 enrichment R
7,B7,5.84 enrichment R
8,B8,0.375 enrichment R
9,B9,5.04 enrichment R
10,B10,0.619 enrichment R
11,B11,1.21 enrichment R
12,B12,0.274 enrichment R
13,B13,0.464 enrichment R
14,B14,1.07 enrichment R
